According to the RNAGym collection of RNA variant scans (doi:10.7554/elife.90254):
Read counts are not given, so values of variants with three or more changes are uncertain.

B1: OR4K15 (parent)
chain: GUUAACGGUCAUAGGCCAUGGAAACUAGGAGCACCAUUUCGCUGCCAGUGAAGAAAUGAACAAAGAAAAUCUGGGCCAGGCAGGCAUCAAAAGAAAUAGUCUUGCGCUCAACCAGAAAGUCUGUAAUCAUUUUAAGGGUA

Variants of: B1
Assay: self-cleavage, relative activity (ratio to wild type); higher = more cleavage; in vitro, sequencing; the parent is a self-cleaving ribozyme

| Variant | self-cleavage |
| --- | --- |
| GUUAACGGUCAUAGGCCAUGGAAACUAGGAGCACCAUUUCGCUGCCAGCGAAGAAAUGAACAAAGGAAAUCUGGGCCAGGCAGGCAUCAAGAGAAAUAGUCUUGCGCUCAACCAGAAAGUCUGUAAUCAUUUUAAGGGUA [U49C A66G A91G] | 1.03 |
| GUUAACGGUCAUAGGCCAUGGAAACUAGGAGCACCAUUUCGCUGCCAGAGAAGAAAUGAACAAAGAAAAUCUGGGCCAGGCAGGCAUCAAAAGAAAUAGUCAUGCGCUCAACCAGAAAGUCUAUAAUCAUUUUAAGGGUA [U49A U102A G123A] | 0.68 |
| GUUAACGGUCAUAGGCCAUGGAAACUAGGAGCACCAUUUCGCUGCCAGCGAAGAAGUGAGCAAAGAAAAUCUGGGCCAGGCAGGCAUCAAGAGAAAUAGUCUUGCACUCAACCAGAAAGUCUGUAAUCAUUUUAAGGGUA [U49C A56G A60G A91G G106A] | 0.02 |
| GUUAACGGUCAUAGGCCAUGGAAACUAGGAGCACCAUUUCGCUGCCAGCGAAGGAAUGAACAAAGAAAAUCUGGGCCAGGCAGGCAUCAAAAGAAAUAGUCUUGCGCUCAACCAGAAAGUCCGUAAUCAUUCUAAGGGUA [U49C A54G U122C U132C] | 0.28 |
| GUUAACGGUCAUAGGCCAUGGAAACUAGGAGCACCAUUUCGCUGCCAGCGAAGAAGUGAACAAAGAAAAUCUGGGCCAGGCAGGCAUCAAAAGAGAUAGUCUUGCGCUCAACCAGAAAGUCUGUAAUCAUUUUAAGGGUA [U49C A56G A95G] | 2.6 |
| GUUAACGGUCAUAGGCCAUGGAAACUAGGAGCACCAUUUCGCUGCCAGAGAAGAAAUGAACAAAGAAAAUCUGGGCCAGGCAGGCACCAAAAGAAAUAGACUUGCGCUCAACCAGAAAGUCUGUAAUCAUUUUAAGGGUA [U49A U87C U100A] | 0.3 |
| GUUAACGGUCAUAGGCCAUGGAAACUAGGAGCACCAUUUCGCUGCCAGCGAAGAAAUGAACAGAGAAAAUCCGGGCCAGGCAGGCAUCAAAAGAGAUAGCCUUGCGCUCAACCAGAAAGUCUGUAAUCAUUUUAAGGGUA [U49C A63G U72C A95G U100C] | 0.43 |
| GUUAACGGUCAUAGGCCAUGGAAACUAGGAGCACCAUUUCGCUGCCAGCGAUGAAAUGGACAAAGAAAAUCUGGGCCAGGCAGGCAUCAAAAGAAAUAGUCUUGCACUCAACCAGAAAGUCUGUAAUCAUUUUAAGGGUA [U49C A52U A59G G106A] | 0.01 |
| GUUAACGGUCAUAGGCCAUGGAAACUAGGAGCACCAUUUCGCUGCCAGCGAAGGAAUGAACAAAGAAAAUCUGGGCCAGGCAGGCAUCAAAAGAAAUAGUCUUGCGCUCAGCCAGAAAGUCUGUAAUCAUUCUAAGGGUA [U49C A54G A111G U132C] | 0.02 |
| GUUAACGGUCAUAGGCCAUGGAAACUAGGAGCACCAUUUCGCUGCCAGCGAAGAAAUGAACAAGGAGAAUCUGGGCCAGGCAGGCAUCAAAAGAAAUAGUCUUGCGCUCAACCAGAGAGUCUGUAAUCAUUUUAAGGGUA [U49C A64G A67G A117G] | 2.35 |
| GUUAACGGUCAUAGGCCAUGGAAACUAGGAGCACCAUUUCGCUGCCAGCGGAGAAAUGAGCAAAGAAAAUCUGGGCCAGGCAGGCAUCAAAAGAAAUAGUCUUGCGCUCAACCAGAAAGUCUGUAAUCAUUUUAAGGGUA [U49C A51G A60G] | 1.25 |
| GUUAACGGUCAUAGGCCAUGGAAACUAGGAGCACCAUUUCGCUGCCAGCGAAGAAAUGAACGAAGAAAAUCUGGGCCAGGCAGGCAUCAAAAGAAAUAGUCUUGCGCUCAACCUGAAAGUCUGUAAUCAUUUUAAGGGUA [U49C A62G A114U] | 0.08 |
| GUUAACGGUCAUAGGCCAUGGAAACUAGGAGCACCAUUUCGCUGCCAGCGAGGAAAUGAACAAAGAAGAUCUGGGCCAGGCAGGCAUCAAAAGAAAUAGUCUUGCGCUCAACCAGAAAGUCUGUAAUCAUUUUAAGGGUA [U49C A52G A68G] | 0.93 |
| GUUAACGGUCAUAGGCCAUGGAAACUAGGAGCACCAUUUCGCUGCCAGAGAAGAAAAGAAUAAAGAAGAUCUGGGCCAGGCAGGCAUCAAAAGAAAUAGUCUUGCGCCCAACCAGAAAGUCUGUAACCAUUUUAAGGGUA [U49A U57A C61U A68G U108C U127C] | 0.01 |
| GUUAACGGUCAUAGGCCAUGGAAACUAGGAGCACCAUUUCGCUGCCAGCGAAGAAAUGAACAAAGAGAAUCUGGGCCAGGCAGGCAUCAAUAGAAAUAGUCUUGCGCUCAACCAGAAAGUCUGUAAUCAUUUUAAGGGUA [U49C A67G A91U] | 1.49 |
| GUUAACGGUCAUAGGCCAUGGAAACUAGGAGCACCAUUUCGCUGCCAGCGAAGAAGUGAACAAAGAAAAUCUGGGCCAGGCAGGCAUCAAUAGAAAUAGUCUUGCGCUCAACCAGAAAGUCUGUAAUCAUUUUAAGGGUA [U49C A56G A91U] | 0.75 |
| GUUAACGGUCAUAGGCCAUGGAAACUAGGAGCACCAUUUCGCUGCCAGCGAAGAAAUGAGCAAAGAAAAUCUGGGCCAGGCAGGCAUCAAAAGAAAUAGUCUUGCGCUCAACCAGAGAGUCCGUAAUCAUUUUAAGGGUA [U49C A60G A117G U122C] | 0.75 |
| GUUAACGGUCAUAGGCCAUGGAAACUAGGAGCACCAUUUCGCUGCCAGCGAAGAAAUGAACAAAGGGAAUCUGGGCCAGGCAGGCAUCAAAAGAAAUAGUCUUGCGCUUAACCAGAAGGUCUGUAAUCAUUUUAAGGGUA [U49C A66G A67G C109U A118G] | 0.13 |
| GUUAACGGUCAUAGGCCAUGGAAACUAGGAGCACCAUUUCGCUGCCAGCGAGGAAAUGAACAAAGAAAAUCUGGGCCAGGCAGGCAUCAAAAGAAAUAGUCUUGCUCUCAACCAGAAAGUCUGUAAUCAUUUUAAGGGUA [U49C A52G G106U] | 0 |
| GUUAACGGUCAUAGGCCAUGGAAACUAGGAGCACCAUUUCGCUGCCAGAGAAGAAAUGAACAAAGAAAAUCUGGGCCAGGCAGGCAUCAAAAGAAAUAGUCUUGCGCCCAACCAGAAAGCCUGUAAUCAUUUUAAGGGUA [U49A U108C U120C] | 0 |
| GUUAACGGUCAUAGGCCAUGGAAACUAGGAGCACCAUUUCGCUGCCAGCGUAGAAAUGAACAAAGAAAAUCUGGGCCAGGCAGGCAUCAAAAGAAAUAGUCUUGCGCUCAACCAGAAAGUCUGUAAUCACUUUAAGGGUA [U49C A51U U130C] | 1.06 |

| Variant | self-cleavage |
| --- | --- |
| GUUAACGGUCAUAGGCCAUGGAAACUAGGAGCACCAUUUCGCUGCCAGCGAAGAAAUGAUCAAAGAAAAUCCGGGCCAGGCAGGCAUCAAAAGAAAUAGUCUAGCGCUCAACCAGAGAGUCUGUAAUCAUUUUAAGGGUA [U49C A60U U72C U103A A117G] | 0.1 |
| GUUAACGGUCAUAGGCCAUGGAAACUAGGAGCACCAUUUCGCUGCCAGCGAAGAAAUGAGCAAAGAAAAUCUGGGCCAGGCAGGCAUCAAAAGAAAUAGUCUUGCGCUCAACCAGAAAGUCUGUAACCAUUUUAAGGGUA [U49C A60G U127C] | 0.53 |
| GUUAACGGUCAUAGGCCAUGGAAACUAGGAGCACCAUUUCGCUGCCAGCGAGGAAAUGAACAAAGAAAAUCUGGGCCAGGCAGGCAUCAAAAGAAAUAGUCUUGCGCUCAGCCAGAAAGUCUGUAAUCAUUUUAAGGGUA [U49C A52G A111G] | 0.01 |
| GUUAACGGUCAUAGGCCAUGGAAACUAGGAGCACCAUUUCGCUGCCAGCGAAGGAAUGAACAAAGAAAAUCUGGGCCAGGCAGGCAUCAAAAGAAAUAGUCCUGCGCUCAACCAGAAAGUCUGUAACCAUUUUAAGGGUA [U49C A54G U102C U127C] | 1.72 |
| GUUAACGGUCAUAGGCCAUGGAAACUAGGAGCACCAUUUCGCUGCCAGCGAAGUAAUGAACAAAGAAAAUCCGGGCCGGGCAGGCAUCAAAAGAAAUAGUCUUGCGCUCAACCAGAAAGUCUGUAAUCAUUUUAAGGGUA [U49C A54U U72C A78G] | 0 |
| GUUAACGGUCAUAGGCCAUGGAAACUAGGAGCACCAUUUCGCUGCCAGCGAAGAAAUGGACCAAGAAAAUCUGGGCCAGGCAGGCAUCAAAAGAAAUAGUCUUGCGCUCAACCAGAAAGUCUGUAAUCUUUUUAAGGGUA [U49C A59G A62C A129U] | 0.46 |
| GUUAACGGUCAUAGGCCAUGGAAACUAGGAGCACCAUUUCGCUGCCAGCGAAGGAAUGAACAAAGAAAAUCUGGGCCAGGCAGGCAUCAAAAGAAAUAGUCUUGCGCUCAACCAGCAAGUCUGUAAUCAUUUUAAGGGUA [U49C A54G A116C] | 0.21 |
| GUUAACGGUCAUAGGCCAUGGAAACUAGGAGCACCAUUUCGCUGCCAGCGAAGAAAUGGACAAAGAAGAUCUGGGCCAGGCCGGCAUCAAAAGAAAUAGUCUUGCGCUCCACCAGAAAGUCUGUAAUCAUUUUAAGGGUA [U49C A59G A68G A82C A110C] | 0.01 |
| GUUAACGGUCAUAGGCCAUGGAAACUAGGAGCACCAUUUCGCUGCCAGCGAAGAAAUGGACAAAGAAAAUCUGGGCCAGGCAGGCAUCAAAAGAAAUAGUCUUGCGCUCAACCAGAAGGUCUGUAAUCAUUUUAAGGGUA [U49C A59G A118G] | 0.54 |
| GUUAACGGUCAUAGGCCAUGGAAACUAGGAGCACCAUUUCGCUGCCAGCGAGGAAAUGAACAAAGUAAAUCUGGGCCAGGCAGGCAUCAAAAGAAAUAGUCUUGCGCUCAACCAGAAAGUCUGCAAUCAUUUUAAGGGUA [U49C A52G A66U U124C] | 0.85 |
| GUUAACGGUCAUAGGCCAUGGAAACUAGGAGCACCAUUUCGCUGCCAGCGAAGAAAUGAACGAAGAAAAUCUGGGCCAGGCAGGCAUCAAAAGGAACAGUCUUGCGCUCAACCAGAAAGUCUGUAAUCAUUUUAAGGGUA [U49C A62G A94G U97C] | 1.07 |
| GUUAACGGUCAUAGGCCAUGGAAACUAGGAGCACCAUUUCGCUGCCAGAGAAGAAAAGAACAAAGAAAAUCUGGGCCAGGCAGGCAUCAAAAGAAAUGGUCUUGCGAUCAACCAGAAAGUCUGUAAUCAUUUUAAGGGUA [U49A U57A A98G C107A] | 0.01 |
| GUUAACGGUCAUAGGCCAUGGAAACUAGGAGCACCAUUUCGCUGCCAGCGAAGAAAUGAACGAAGAAAAUCUGGGCCAGGCAGGCAUCAAAAGAAAUAGUCCUGCGCUCAACCAGAAGGUCUGUAAUCGUUUUAAGGGUA [U49C A62G U102C A118G A129G] | 0.58 |
| GUUAACGGUCAUAGGCCAUGGAAACUAGGAGCACCAUUUCGCUGCCAGAGAAGAAACGAACAAAGAAAACCUGGGCCAGGCAGGCAUCAAAAAGAAUAGUCUUGCGCUCAACCAGAAAGUCUGUAAUCAUUUUAAGGGUA [U49A U57C U70C G93A A94G] | 0.38 |
| GUUAACGGUCAUAGGCCAUGGAAACUAGGAGCACCAUUUCGCUGCCAGCGAAGAGAUGAGCAAAGAAAAUCUGGGCCAGGCAGGCAUCAAAAGAAAUAGUCUUGCGCCCAACCAGAAAGUCUGUAAUCAUUUUAAGGGUA [U49C A55G A60G U108C] | 0.03 |
| GUUAACGGUCAUAGGCCAUGGAAACUAGGAGCACCAUUUCGCUGCCAGCGAAGAAGUGAGCAAAGAGAAUCUGGGCCAGGCAGGCAUCCAAAGAAAUAGUCUUGCGCUCAACCAGAAAGUCUGUAAUCAUUUUAAGGGUA [U49C A56G A60G A67G A89C] | 1.46 |
| GUUAACGGUCAUAGGCCAUGGAAACUAGGAGCACCAUUUCGCUGCCAGCGAAGAAGUGAACAAAGAAAAUCUGGGCCAGGCAGGCAUCAAAAGAAAUAGUCUUGCGCUCAACCAGAAAGUCUGUAAUCACUUUAAGGGUA [U49C A56G U130C] | 0.66 |
| GUUAACGGUCAUAGGCCAUGGAAACUAGGAGCACCAUUUCGCUGCCAGCGGAGAAAUGAACAAAGGAGAUCUGGGCCAGGCAGGCAUCAAAAGAAAUAGUCUUGCGCUCAACCAGAAAGUCUGUAAUCAUUUUAAGGGUA [U49C A51G A66G A68G] | 0.82 |
| GUUAACGGUCAUAGGCCAUGGAAACUAGGAGCACCAUUUCGCUGCCAGCGAAGAAAUGGACAAAGAAAAUCUGGGCCAGGCAGGCACCAAAAGAAAUAGUCUUGCGCUCAACCAGGAAGUCUGUAAUCAUUUUAAGGGUA [U49C A59G U87C A116G] | 0.19 |
| GUUAACGGUCAUAGGCCAUGGAAACUAGGAGCACCAUUUCGCUGCCAGCGGAGAAAUGAACAAAGAAAAUCUGGGCCAGGCAGGCAUCAAAAGAAAUAGUCUUGCGCUCAACCAGAAAGACUGUAAUCAUUUUAAGGGUA [U49C A51G U120A] | 1.44 |
